# From the supplement of paper PMC9588766
# Structures can show the parent of a compound that is named as a salt. The full ranking holds about 1,900 compounds; the median of “cell viability of compound + 1 nM pemigatinib relative to pemigatinib-only (DMSO) wells” is about 0.95, and the lowest 2% start at about 0.22. The list shows a part of the results.
# Test system: PDC-DUC18828
# Assay: cell viability of compound + 1 nM pemigatinib relative to pemigatinib-only (DMSO) wells (fraction); PDC-DUC18828 is a patient-derived cholangiocarcinoma cell line; higher = less growth inhibition
# Conditions: first compound 1 µM; pemigatinib concentration 1 nM; 72 h
# Procedure: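 Selleck Bioactive library screen in the patient-derived FGFR2 fusion-positive ICC cell line PDC-DUC18828 (500 cells/well). Each compound was tested at 1 uM with 1 nM pemigatinib, in triplicate, for 72 h. Viability was read by CellTiter-Glo and normalised to plate DMSO controls. Value is the paper's averaged normalised viability.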
row,SMILES,cell viability
1,NS(=O)(=O)c1cc(C(=O)O)c(NCc2ccco2)cc1Cl [Furosemide] + CCN1C(=O)N(c2c(F)c(OC)cc(OC)c2F)Cc2cnc3[nH]c(CN4CCOCC4)cc3c21 [pemigatinib],1.11
2,O=C(O)c1cc(=O)c2ccccc2o1 [Chromocarb] + CCN1C(=O)N(c2c(F)c(OC)cc(OC)c2F)Cc2cnc3[nH]c(CN4CCOCC4)cc3c21 [pemigatinib],1.03
3,Cc1ccc(S(=O)(=O)n2c(N)nc3ccccc32)cc1 [ML130 (Nodinitib-1)] + CCN1C(=O)N(c2c(F)c(OC)cc(OC)c2F)Cc2cnc3[nH]c(CN4CCOCC4)cc3c21 [pemigatinib],0.857
4,O=C(NCc1ccncc1)C12CC3CC(C1)CC(c1ccc(Cl)cc1)(C3)C2 + CCN1C(=O)N(c2c(F)c(OC)cc(OC)c2F)Cc2cnc3[nH]c(CN4CCOCC4)cc3c21 [pemigatinib],0.951
5,CCOC(=O)[C@H](CCc1ccccc1)N[C@@H](C)C(=O)N1[C@H](C(=O)O)C[C@@H]2CCC[C@@H]21 [Ramipril] + CCN1C(=O)N(c2c(F)c(OC)cc(OC)c2F)Cc2cnc3[nH]c(CN4CCOCC4)cc3c21 [pemigatinib],0.949
6,NC(=O)c1ncn([C@@H]2O[C@H](CO)[C@@H](O)[C@H]2O)n1 [Ribavirin] + CCN1C(=O)N(c2c(F)c(OC)cc(OC)c2F)Cc2cnc3[nH]c(CN4CCOCC4)cc3c21 [pemigatinib],1.01
7,CNS(=O)(=O)Cc1ccc2[nH]cc(CCN(C)C)c2c1 [Sumatriptan Succinate] + CCN1C(=O)N(c2c(F)c(OC)cc(OC)c2F)Cc2cnc3[nH]c(CN4CCOCC4)cc3c21 [pemigatinib],1.02
8,COc1cc2ncnc(Oc3cccc(NC(=O)Nc4cc(C(C)(C)C(F)(F)F)on4)c3)c2cc1OC + CCN1C(=O)N(c2c(F)c(OC)cc(OC)c2F)Cc2cnc3[nH]c(CN4CCOCC4)cc3c21 [pemigatinib],1.04
9,O=C(COc1ccc(Cl)cc1)NC1CCC(NC(=O)COc2ccc(Cl)cc2)CC1 (stereo not drawn) [ISRIB (trans-isomer)] + CCN1C(=O)N(c2c(F)c(OC)cc(OC)c2F)Cc2cnc3[nH]c(CN4CCOCC4)cc3c21 [pemigatinib],1
10,O=c1c(O)c(-c2ccc(O)c(O)c2)oc2cc(O)ccc12 [Fisetin] + CCN1C(=O)N(c2c(F)c(OC)cc(OC)c2F)Cc2cnc3[nH]c(CN4CCOCC4)cc3c21 [pemigatinib],0.93
11,NS(=O)(=O)c1cc2c(cc1Cl)N=CNS2(=O)=O [Chlorothiazide] + CCN1C(=O)N(c2c(F)c(OC)cc(OC)c2F)Cc2cnc3[nH]c(CN4CCOCC4)cc3c21 [pemigatinib],0.986
12,COc1ccc(-c2cnc3c(-c4cccc5ncccc45)cnn3c2)cc1 + CCN1C(=O)N(c2c(F)c(OC)cc(OC)c2F)Cc2cnc3[nH]c(CN4CCOCC4)cc3c21 [pemigatinib],0.944
13,COc1ccc(-c2nc3cc(C4=NNC(=O)CC4C)ccc3[nH]2)cc1 (stereo not given) [Pimobendan] + CCN1C(=O)N(c2c(F)c(OC)cc(OC)c2F)Cc2cnc3[nH]c(CN4CCOCC4)cc3c21 [pemigatinib],0.968
14,NCC(=O)Nc1ccc(-n2nc(C(F)(F)F)cc2-c2ccc3c(ccc4ccccc43)c2)cc1 + CCN1C(=O)N(c2c(F)c(OC)cc(OC)c2F)Cc2cnc3[nH]c(CN4CCOCC4)cc3c21 [pemigatinib],1.01
15,O=C(Nc1ccccc1)c1ccccc1O [Salicylanilide] + CCN1C(=O)N(c2c(F)c(OC)cc(OC)c2F)Cc2cnc3[nH]c(CN4CCOCC4)cc3c21 [pemigatinib],1.02
16,FC(F)(F)c1ccc(CNc2ccc(Cc3c[nH]c4ncc(Cl)cc34)cn2)cn1 [Pexidartinib (PLX3397)] + CCN1C(=O)N(c2c(F)c(OC)cc(OC)c2F)Cc2cnc3[nH]c(CN4CCOCC4)cc3c21 [pemigatinib],0.982
17,CC(C)[C@H](CO)Nc1nc(Nc2cccc(Cl)c2)c2ncn(C(C)C)c2n1 [Purvalanol A] + CCN1C(=O)N(c2c(F)c(OC)cc(OC)c2F)Cc2cnc3[nH]c(CN4CCOCC4)cc3c21 [pemigatinib],0.924
18,Cc1[nH]c(=O)c(C#N)cc1-c1ccncc1 [Milrinone] + CCN1C(=O)N(c2c(F)c(OC)cc(OC)c2F)Cc2cnc3[nH]c(CN4CCOCC4)cc3c21 [pemigatinib],0.984
19,Cc1ccnc2c1NC(=O)c1cccnc1N2C1CC1 [Nevirapine] + CCN1C(=O)N(c2c(F)c(OC)cc(OC)c2F)Cc2cnc3[nH]c(CN4CCOCC4)cc3c21 [pemigatinib],0.973
20,CC(=O)c1cc([N+](=O)[O-])c(Sc2cccc(Cl)c2Cl)s1 + CCN1C(=O)N(c2c(F)c(OC)cc(OC)c2F)Cc2cnc3[nH]c(CN4CCOCC4)cc3c21 [pemigatinib],0.967

row,SMILES,cell viability
1,CS(=O)(=O)c1ccc(C2=C(c3ccccc3)C(=O)OC2)cc1 [Rofecoxib] + CCN1C(=O)N(c2c(F)c(OC)cc(OC)c2F)Cc2cnc3[nH]c(CN4CCOCC4)cc3c21 [pemigatinib],0.852
2,Cn1c(=O)c2[nH]cnc2n(C)c1=O [Aminophylline] + CCN1C(=O)N(c2c(F)c(OC)cc(OC)c2F)Cc2cnc3[nH]c(CN4CCOCC4)cc3c21 [pemigatinib],1
3,Cc1c(C(N)=O)cc([N+](=O)[O-])cc1[N+](=O)[O-] [Dinitolmide] + CCN1C(=O)N(c2c(F)c(OC)cc(OC)c2F)Cc2cnc3[nH]c(CN4CCOCC4)cc3c21 [pemigatinib],1.1
4,N=C(N)N [Guanidine HCl] + CCN1C(=O)N(c2c(F)c(OC)cc(OC)c2F)Cc2cnc3[nH]c(CN4CCOCC4)cc3c21 [pemigatinib],0.963
5,Cc1ncc([N+](=O)[O-])n1CC(O)CCl (stereo not given) [Ornidazole] + CCN1C(=O)N(c2c(F)c(OC)cc(OC)c2F)Cc2cnc3[nH]c(CN4CCOCC4)cc3c21 [pemigatinib],0.897
6,CN1C(C(=O)Nc2ccccn2)=C(O)c2sccc2S1(=O)=O [Tenoxicam] + CCN1C(=O)N(c2c(F)c(OC)cc(OC)c2F)Cc2cnc3[nH]c(CN4CCOCC4)cc3c21 [pemigatinib],0.919
7,CCc1nc(-c2cccc(C)c2)c(-c2ccnc(NC(=O)c3ccccc3)c2)s1 + CCN1C(=O)N(c2c(F)c(OC)cc(OC)c2F)Cc2cnc3[nH]c(CN4CCOCC4)cc3c21 [pemigatinib],0.815
8,Cc1cccc(C)c1NC(=O)C1CCCCN1C (stereo not given) [Mepivacaine HCl] + CCN1C(=O)N(c2c(F)c(OC)cc(OC)c2F)Cc2cnc3[nH]c(CN4CCOCC4)cc3c21 [pemigatinib],0.892
9,COc1cc(/C=C/C(=O)N2CCC=CC2=O)cc(OC)c1OC [Piperlongumine] + CCN1C(=O)N(c2c(F)c(OC)cc(OC)c2F)Cc2cnc3[nH]c(CN4CCOCC4)cc3c21 [pemigatinib],0.789
10,CC1(COc2ccc3c(c2)ncn3-c2ccc3cccc(N4CCC(N)CC4)c3n2)COC1 + CCN1C(=O)N(c2c(F)c(OC)cc(OC)c2F)Cc2cnc3[nH]c(CN4CCOCC4)cc3c21 [pemigatinib],1.03
11,COc1ccccc1-c1cc(Nc2cccc(CS(N)(=O)=O)c2)ncn1 + CCN1C(=O)N(c2c(F)c(OC)cc(OC)c2F)Cc2cnc3[nH]c(CN4CCOCC4)cc3c21 [pemigatinib],0.963
12,C[C@@H](Oc1cc(-n2cnc3ccc(CN4CCN(C)CC4)cc32)sc1C(N)=O)c1ccccc1C(F)(F)F + CCN1C(=O)N(c2c(F)c(OC)cc(OC)c2F)Cc2cnc3[nH]c(CN4CCOCC4)cc3c21 [pemigatinib],0.271
13,CNCC[C@H](Oc1cccc2ccccc12)c1cccs1 [Duloxetine HCl] + CCN1C(=O)N(c2c(F)c(OC)cc(OC)c2F)Cc2cnc3[nH]c(CN4CCOCC4)cc3c21 [pemigatinib],1.06
14,COc1cc2c(cc1OC)CN(CCc1ccc(NC(=O)c3cc(OC)c(OC)cc3NC(=O)c3cnc4ccccc4c3)cc1)CC2 [Tariquidar] + CCN1C(=O)N(c2c(F)c(OC)cc(OC)c2F)Cc2cnc3[nH]c(CN4CCOCC4)cc3c21 [pemigatinib],1.02
15,COc1cc(Cc2cnc(N)nc2N)cc(OC)c1OC [Trimethoprim] + CCN1C(=O)N(c2c(F)c(OC)cc(OC)c2F)Cc2cnc3[nH]c(CN4CCOCC4)cc3c21 [pemigatinib],0.906
16,COc1ccc([C@H]2CNC(=O)C2)cc1OC1CCCC1 [S- (+)-Rolipram] + CCN1C(=O)N(c2c(F)c(OC)cc(OC)c2F)Cc2cnc3[nH]c(CN4CCOCC4)cc3c21 [pemigatinib],0.996
17,Cc1nc(-c2cn3c(n2)-c2ccc(-c4cnn(C(C)(C)C(N)=O)c4)cc2OCC3)n(C(C)C)n1 + CCN1C(=O)N(c2c(F)c(OC)cc(OC)c2F)Cc2cnc3[nH]c(CN4CCOCC4)cc3c21 [pemigatinib],0.578
18,CC(C)(C)c1ccc(-c2nc3ccccc3[nH]2)cc1 + CCN1C(=O)N(c2c(F)c(OC)cc(OC)c2F)Cc2cnc3[nH]c(CN4CCOCC4)cc3c21 [pemigatinib],0.888
19,O=c1cc[nH]c(=S)[nH]1 [2-Thiouracil] + CCN1C(=O)N(c2c(F)c(OC)cc(OC)c2F)Cc2cnc3[nH]c(CN4CCOCC4)cc3c21 [pemigatinib],0.916
20,Cc1cc(C)c(/C=C2\C(=O)Nc3ccccc32)[nH]1 [Semaxanib (SU5416)] + CCN1C(=O)N(c2c(F)c(OC)cc(OC)c2F)Cc2cnc3[nH]c(CN4CCOCC4)cc3c21 [pemigatinib],0.923
